What was measured:
[1] = target: T1, T-channels in rat DRG neurons (Rattus norvegicus, UniProt Q9EQ60); settings: cited from earlier work
T1 construct: endogenous in cells; host or cells: acutely dissociated rat DRG neurons

[2] = system: voltage-gated Na+, K+, N- and L-type HVA Ca2+ channels, glutamate and GABA-gated channels; settings: cited from earlier work
[3] = target: recombinant Cav2.3 currents (Homo sapiens, UniProt Q15878); settings: read-out: IC50, recombinant Cav2.3 currents; cited from earlier work
adult naïve rats = test: Thermal paw withdrawal latency after i.t. injection in naive rats; type: in vivo, rat; settings: 23 μg i.t., both paws, 30 and 60 minutes post injection
Method: a. […] We began by studying the role of postsynaptic T-channels in DH neurons using current-clamp recording from unidentified lamina I-II DH neurons in spinal cord slices in vitro. To exclude synaptic currents, our external solution contained 20 μM picrotoxin, 50 μM d-APV and 5 μM NBQX to block inhibitory and excitatory synaptic currents, respectively. We first injected −300 pA of current via the recording electrode for 500 ms, which hyperpolarized the resting membrane potential (RMP) and allowed T-channels to recover from inactivation. This protocol served to assess input resistance (Rin) and to evoke rebound action potential (AP) firing. The top line in FIG. 3A depicts the protocol of current injection while bottom traces represent membrane responses. […] To investigate the possible role of T-channels in spinal nociceptive transmission in vivo, we used intrathecal (i.t.) injections and measured thermal nociceptive responses to noxious heat in adult naïve rats using methods as we described elsewhere (Messinger et al., 2009; Obradovic et al., 2014, PLoS ONE 9(4): e91467. doi:10.1371/journal.pone.0091467). For i.t. injections, rats were briefly anesthetized with 1.5-2% isoflurane and thermal paw withdrawal latencies (PWLs) were measured starting from 30 minutes following injection. […]

[4] = system: postsynaptic T-channels in DH neurons; test: Current-clamp recording from lamina I-II DH neurons in spinal cord slices; type: cell-based; settings: 1 μM
Method: a. […] We began by studying the role of postsynaptic T-channels in DH neurons using current-clamp recording from unidentified lamina I-II DH neurons in spinal cord slices in vitro. To exclude synaptic currents, our external solution contained 20 μM picrotoxin, 50 μM d-APV and 5 μM NBQX to block inhibitory and excitatory synaptic currents, respectively. We first injected −300 pA of current via the recording electrode for 500 ms, which hyperpolarized the resting membrane potential (RMP) and allowed T-channels to recover from inactivation. This protocol served to assess input resistance (Rin) and to evoke rebound action potential (AP) firing. The top line in FIG. 3A depicts the protocol of current injection while bottom traces represent membrane responses. […] We then applied 1 μM TTA-P2 in the external solution for 5 minutes and repeated the same recording protocol (FIG. 3B, bottom trace). […] This finding was consistent in all DH cells challenged with TTA-P2: control: 1.25±0.25 APs; TTA-P2; 0±0 APs (n=4, p<0.05). […] To investigate the possible role of T-channels in spinal nociceptive transmission in vivo, we used intrathecal (i.t.) injections and measured thermal nociceptive responses to noxious heat in adult naïve rats using methods as we described elsewhere (Messinger et al., 2009; Obradovic et al., 2014, PLoS ONE 9(4): e91467. doi:10.1371/journal.pone.0091467). For i.t. injections, rats were briefly anesthetized with 1.5-2% isoflurane and thermal paw withdrawal latencies (PWLs) were measured starting from 30 minutes following injection. […] After 90 minutes, thermal PWLs in both paws returned to near baseline levels and remained stable up to 180 minutes of recording.

[5] = target: T2, recombinant human Cav2.3 channels (Homo sapiens, UniProt Q15878); test: Recombinant human Cav2.3 currents in HEK 293 cells; type: cell-based; settings: HEK293, read-out: inhibition of recombinant Cav2.3 inward current (of control pre-drug values)
T2 construct: expressed in transfected cells
Source text: Here, we examined the sensitivity of recombinant human Cav2.3 channels stably expressed in human embryonic kidney (HEK) 293 cells to 3β-OH.

rats = test: 8-arm radial arm maze (RAM) after exposure at PND7; type: in vivo, rat
Method: (§1) To assess cognitive abilities of our rats we tested their spatial working memory using the 8-arm radial arm maze test (RAM). We began by comparing the overall appearance and daily weight of rats in each group (saline, cyclodextrin, 3β-OH at 10 mg/kg and ketamine at 40 mg/kg) since nutritional status and general state of health are critically important for cognitive development. Based on their general appearance, rats in different groups could not be distinguished from each other. Similarly, there was no difference in daily weight gain among the groups (FIG. 13A). The time points when the animals were treated (PND 7), food restricted (from PND 45), tested on the RAM (from PND 53) and permitted to eat ad libitum (from PND 70) are indicated on the graph. Food restriction, a necessary component of the RAM learning protocol, was limited so that no rat lost more than 10%-15% of its body weight.
To further scrutinize how the acquisition rate of 3β-OH-treated rats compares to ketamine and vehicle groups, we plotted the cumulative percent scores for ketamine-treated animals relative to recorded cumulative percent scores for other groups, using a percent-percent plot (p-p plot) (FIG. 14). […] The learning behavior of 3β-OH-treated rats is similar to that of sham controls resulting in a large gap (shaded area) in learning ability between ketamine-treated (lower blue dotted line) and 3β-OH-treated animals (upper red dotted line). A slight slowing in the acquisition rate observed with 3β-OH-treated rats when compared to vehicle controls (saline—SAL and cyclodextrin—CYCL) during the mid-portion of training (as discussed in FIG. 13C) is highlighted with rectangles.

[6] = system: activated caspase-3 in developing brain; test: Activated caspase-3 staining of vulnerable brain regions in PND7 rat pups
[7] = Daily weight gain after exposure at PND7; type: in vivo, rat; settings: 3β-OH at 10 mg/kg, ketamine at 40 mg/kg, treated PND 7
Method: as §1

rat pups (PND7) = test: Loss of righting reflex (LORR) in PND7 rat pups, i.p.
GABAA currents = settings: cited from earlier work
tadpoles = settings: in vivo; cited from earlier work
[8] = rat, in vivo, intraperitoneal, 40 mg/kg

T1 sequence (Q9EQ60 whole entry): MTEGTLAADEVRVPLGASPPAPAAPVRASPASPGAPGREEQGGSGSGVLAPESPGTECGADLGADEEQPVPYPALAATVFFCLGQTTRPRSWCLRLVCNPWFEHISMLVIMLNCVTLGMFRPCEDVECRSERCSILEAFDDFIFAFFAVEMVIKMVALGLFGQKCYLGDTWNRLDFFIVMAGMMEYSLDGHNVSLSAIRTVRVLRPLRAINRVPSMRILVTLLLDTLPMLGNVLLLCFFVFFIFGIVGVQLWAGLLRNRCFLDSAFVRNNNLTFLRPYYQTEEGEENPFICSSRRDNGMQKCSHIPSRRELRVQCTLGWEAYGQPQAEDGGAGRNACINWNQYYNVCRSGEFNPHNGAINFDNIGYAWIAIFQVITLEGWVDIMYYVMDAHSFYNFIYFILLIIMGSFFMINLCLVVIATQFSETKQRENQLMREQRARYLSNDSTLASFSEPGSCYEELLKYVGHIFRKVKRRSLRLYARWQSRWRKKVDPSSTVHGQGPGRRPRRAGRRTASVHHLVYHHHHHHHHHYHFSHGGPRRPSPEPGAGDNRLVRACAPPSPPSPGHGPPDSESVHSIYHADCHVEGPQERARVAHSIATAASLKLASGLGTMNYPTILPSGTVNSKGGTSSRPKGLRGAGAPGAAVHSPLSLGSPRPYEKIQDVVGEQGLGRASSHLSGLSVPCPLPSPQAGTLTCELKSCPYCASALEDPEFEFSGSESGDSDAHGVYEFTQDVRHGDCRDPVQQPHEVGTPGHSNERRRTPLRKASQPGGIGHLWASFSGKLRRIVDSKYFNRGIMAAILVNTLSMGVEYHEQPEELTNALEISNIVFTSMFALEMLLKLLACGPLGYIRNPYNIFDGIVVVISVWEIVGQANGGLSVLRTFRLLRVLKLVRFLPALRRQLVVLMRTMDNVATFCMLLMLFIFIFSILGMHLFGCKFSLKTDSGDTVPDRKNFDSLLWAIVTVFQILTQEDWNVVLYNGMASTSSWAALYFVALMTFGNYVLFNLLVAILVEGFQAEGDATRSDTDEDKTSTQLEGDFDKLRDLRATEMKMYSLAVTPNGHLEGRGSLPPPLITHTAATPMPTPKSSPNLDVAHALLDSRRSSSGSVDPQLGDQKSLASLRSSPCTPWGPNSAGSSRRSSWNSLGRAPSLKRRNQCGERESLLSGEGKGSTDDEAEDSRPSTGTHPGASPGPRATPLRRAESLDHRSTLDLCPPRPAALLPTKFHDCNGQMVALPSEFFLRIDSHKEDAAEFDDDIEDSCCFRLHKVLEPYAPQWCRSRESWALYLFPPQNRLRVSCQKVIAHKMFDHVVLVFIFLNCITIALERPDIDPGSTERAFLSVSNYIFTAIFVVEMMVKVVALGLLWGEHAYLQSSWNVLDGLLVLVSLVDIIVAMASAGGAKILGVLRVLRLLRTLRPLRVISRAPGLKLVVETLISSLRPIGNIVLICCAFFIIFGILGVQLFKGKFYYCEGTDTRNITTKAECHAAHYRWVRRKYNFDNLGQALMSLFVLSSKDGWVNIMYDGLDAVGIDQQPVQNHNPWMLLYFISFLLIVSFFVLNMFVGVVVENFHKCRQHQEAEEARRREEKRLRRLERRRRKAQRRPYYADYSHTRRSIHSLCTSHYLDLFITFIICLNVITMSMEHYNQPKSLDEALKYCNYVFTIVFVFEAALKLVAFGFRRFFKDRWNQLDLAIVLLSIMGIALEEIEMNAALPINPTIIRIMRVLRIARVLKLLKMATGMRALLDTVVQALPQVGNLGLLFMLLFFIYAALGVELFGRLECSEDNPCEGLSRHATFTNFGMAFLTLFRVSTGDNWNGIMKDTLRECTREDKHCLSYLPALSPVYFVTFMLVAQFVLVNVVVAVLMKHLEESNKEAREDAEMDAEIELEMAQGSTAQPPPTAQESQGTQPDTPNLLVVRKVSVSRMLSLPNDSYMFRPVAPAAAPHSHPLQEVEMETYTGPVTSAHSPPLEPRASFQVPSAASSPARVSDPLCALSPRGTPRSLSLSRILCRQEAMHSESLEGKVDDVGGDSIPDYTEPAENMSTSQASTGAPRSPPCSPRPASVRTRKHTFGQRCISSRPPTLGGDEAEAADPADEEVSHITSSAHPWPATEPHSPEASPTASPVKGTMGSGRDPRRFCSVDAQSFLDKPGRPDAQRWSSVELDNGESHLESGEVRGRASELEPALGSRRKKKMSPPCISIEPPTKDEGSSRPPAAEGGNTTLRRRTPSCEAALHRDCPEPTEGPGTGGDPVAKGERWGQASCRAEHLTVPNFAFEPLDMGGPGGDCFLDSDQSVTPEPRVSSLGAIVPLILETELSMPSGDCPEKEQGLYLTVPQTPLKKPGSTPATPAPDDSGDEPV
recombinant Cav2.3 currents, sequence (Q15878 whole entry): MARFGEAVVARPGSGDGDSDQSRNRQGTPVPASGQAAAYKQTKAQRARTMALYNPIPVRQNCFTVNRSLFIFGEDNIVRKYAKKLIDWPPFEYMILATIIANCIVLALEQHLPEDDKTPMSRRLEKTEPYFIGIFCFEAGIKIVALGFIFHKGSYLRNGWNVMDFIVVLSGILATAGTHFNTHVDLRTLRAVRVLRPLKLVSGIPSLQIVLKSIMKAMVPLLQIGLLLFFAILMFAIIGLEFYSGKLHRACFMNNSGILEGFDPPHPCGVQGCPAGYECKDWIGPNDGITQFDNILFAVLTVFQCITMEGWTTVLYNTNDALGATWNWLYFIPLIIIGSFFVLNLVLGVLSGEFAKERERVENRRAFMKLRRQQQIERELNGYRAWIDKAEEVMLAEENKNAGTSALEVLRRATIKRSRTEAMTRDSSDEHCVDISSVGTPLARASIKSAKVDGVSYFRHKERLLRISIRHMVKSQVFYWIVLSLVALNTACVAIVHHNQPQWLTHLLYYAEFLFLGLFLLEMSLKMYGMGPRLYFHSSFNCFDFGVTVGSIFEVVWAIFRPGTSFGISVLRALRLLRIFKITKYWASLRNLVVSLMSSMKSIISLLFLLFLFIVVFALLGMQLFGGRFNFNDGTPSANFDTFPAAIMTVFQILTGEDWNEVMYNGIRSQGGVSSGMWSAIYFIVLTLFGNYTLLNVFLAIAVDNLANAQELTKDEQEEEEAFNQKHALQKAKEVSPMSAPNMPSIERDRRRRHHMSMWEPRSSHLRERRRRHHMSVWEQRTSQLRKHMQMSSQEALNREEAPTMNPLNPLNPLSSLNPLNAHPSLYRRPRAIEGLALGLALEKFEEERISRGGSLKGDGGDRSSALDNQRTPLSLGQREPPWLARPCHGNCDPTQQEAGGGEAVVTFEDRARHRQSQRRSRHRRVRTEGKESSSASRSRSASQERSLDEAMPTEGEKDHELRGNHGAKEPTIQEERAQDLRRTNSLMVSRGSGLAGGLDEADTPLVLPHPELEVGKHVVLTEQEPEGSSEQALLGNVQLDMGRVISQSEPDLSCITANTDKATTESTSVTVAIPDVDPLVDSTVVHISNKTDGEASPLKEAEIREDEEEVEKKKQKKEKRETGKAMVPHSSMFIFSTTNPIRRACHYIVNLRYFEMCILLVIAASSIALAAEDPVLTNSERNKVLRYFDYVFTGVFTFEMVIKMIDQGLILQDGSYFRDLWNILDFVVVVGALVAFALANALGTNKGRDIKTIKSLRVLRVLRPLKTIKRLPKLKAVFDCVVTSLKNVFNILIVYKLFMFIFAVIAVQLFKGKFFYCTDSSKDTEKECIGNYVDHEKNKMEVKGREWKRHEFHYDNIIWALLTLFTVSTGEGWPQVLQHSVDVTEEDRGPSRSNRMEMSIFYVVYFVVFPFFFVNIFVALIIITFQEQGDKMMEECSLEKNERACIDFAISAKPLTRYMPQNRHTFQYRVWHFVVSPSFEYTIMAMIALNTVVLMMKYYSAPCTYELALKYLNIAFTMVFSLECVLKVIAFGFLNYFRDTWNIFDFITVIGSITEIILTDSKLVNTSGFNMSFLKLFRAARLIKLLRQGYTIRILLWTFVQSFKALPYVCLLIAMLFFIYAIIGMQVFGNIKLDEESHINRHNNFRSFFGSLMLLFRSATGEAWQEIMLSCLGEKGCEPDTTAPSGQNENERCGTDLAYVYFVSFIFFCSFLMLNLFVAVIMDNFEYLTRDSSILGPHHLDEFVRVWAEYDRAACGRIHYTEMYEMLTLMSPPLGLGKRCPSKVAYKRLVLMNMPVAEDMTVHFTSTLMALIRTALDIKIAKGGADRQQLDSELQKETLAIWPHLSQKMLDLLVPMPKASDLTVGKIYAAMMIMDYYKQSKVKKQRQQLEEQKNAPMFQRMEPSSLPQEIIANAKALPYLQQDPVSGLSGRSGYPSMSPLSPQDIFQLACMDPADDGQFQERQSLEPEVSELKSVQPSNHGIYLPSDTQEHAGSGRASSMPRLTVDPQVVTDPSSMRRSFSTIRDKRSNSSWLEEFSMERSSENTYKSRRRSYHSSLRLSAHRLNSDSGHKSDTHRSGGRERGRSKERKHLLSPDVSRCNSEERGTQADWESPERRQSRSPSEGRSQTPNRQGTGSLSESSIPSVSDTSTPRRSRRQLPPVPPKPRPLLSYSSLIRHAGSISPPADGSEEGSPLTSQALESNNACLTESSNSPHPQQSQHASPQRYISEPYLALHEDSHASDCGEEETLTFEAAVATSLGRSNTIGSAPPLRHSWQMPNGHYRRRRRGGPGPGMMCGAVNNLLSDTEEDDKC

C[C@]12CC[C@H]3[C@@H](CC[C@H]4C[C@@H](C#N)CC[C@@H]43)[C@@H]1CC[C@@H]2O [ECN, (3β,5α,17β)-17-hydroxyestrane-3-carbonitrile]
maximal block of T-current ([1]; DRG neurons): 40% | IC50 ([1]; read-out: IC50, block of T-channels in rat DRG neurons, voltage-dependent block): 0.3 µM | effect on voltage-gated Na+, K+, N- and L-type HVA Ca2+ channels, glutamate and GABA-gated channels [2]: very little effect | IC50 [3]: 16 µM

CC1(C)C[C@@H](CN2CCC(F)(CNC(=O)c3cc(Cl)cc(Cl)c3)CC2)CCO1 [TTA-P2]
increase of thermal PWLs from baseline (adult naïve rats): up to 50% | effect on ADP and rebound AP [4]: completely inhibited | rebound action potentials ([4]; 5 minutes, control 1.25±0.25): 0±0 APs | input resistance (Rin) ([4]; control 194±37): 191±29 MΩ | resting membrane potential (RMP) ([4]; control −57±2): −58±3 mV

FC(F)OC(Cl)C(F)(F)F (stereo not shown) [isoflurane, reference compound]
inhibition at 300 µM [5]: 69 ± 4%

CNC1(c2ccccc2Cl)CCCCC1=O (stereo not shown) [ketamine, reference compound]
days required to reach learning criterion in RAM (rats; 3β-OH at 10 mg/kg, ketamine at 40 mg/kg at PND 7, tested from PND 53): significantly impaired | rats reaching criterion in the allotted time (rats; p-p plot): about 85% | rats that did not learn the task during the allotted time (rats; [8]): about 15% | rats that had reached criterion at the same point of training (p-p plot) (rats; [8]): 28% | caspase-3 activation compared with 3β-OH at equipotent dose ([6]; 20 mg/kg i.p. every hour, six doses, all brain regions): significantly higher | increase in caspase-3 activation, higher dose compared with twice lower dose ([6]; 40 mg/kg vs 20 mg/kg i.p., 6 doses hourly): 3-6 fold | caspase-3 activation at higher dose compared with vehicle ([6]; 3β-OH 10 mg/kg or ketamine 40 mg/kg i.p., 6 doses hourly, 3β-OH: except subiculum): significant increase | daily weight gain among the groups [7]: no difference | calculated EC50 (duration of LORR) (rat pups (PND7)): 62.9 ± 3.9 mg/kg

(3α,5α)-3-hydroxy-13,24-cyclo-18,21-dinorchol-22-en-24-ol [CDNC24]
effect on T-currents in DRG cells [1]: no effect | effect on GABAA currents (GABAA currents): potent potentiator | anesthetic in tadpoles (tadpoles): anesthetic

Source: US10292989B2, “General anesthetics that are not neurotoxic” (University of Virginia Patent Foundation, priority 2014, dated 2019)
